Test results reported in the supplement of paper PMC4967469.

How the values were obtained:
Assay in all cases: Viability of human cancer cell lines after 72 h of drug (GDSC screen)
17-AAG = compound: C=CCNC1=C2C[C@@H](C)C[C@H](OC)[C@H](O)[C@@H](C)/C=C(\C)[C@H](OC(N)=O)[C@@H](OC)/C=C\C=C(/C)C(=O)NC(=CC1=O)C2=O [17-AAG]; conditions: top dose 1 µM
Description: (§1)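 Human cancer cell lines in 384-well plates, medium with 10% serum, drug for 72 h over a 256-fold dose range (nine 2-fold or five 4-fold steps up to the top dose). Adherent lines were fixed and stained with the nucleic acid dye Syto60, suspension lines read with resazurin; signal relative to control wells, capped at 0 and 100%. One two-parameter sigmoid per drug and line, fitted in a mixed model over all curves with the slope shared within a line.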

CCT018159 = compound: CCc1cc(-c2n[nH]c(C)c2-c2ccc3c(c2)OCCO3)c(O)cc1O [CCT018159]; conditions: top dose 10 µM; top dose inferred
Description: as §1

Vismodegib = compound: CS(=O)(=O)c1ccc(C(=O)Nc2ccc(Cl)c(-c3ccccn3)c2)c(Cl)c1 [Vismodegib]; conditions: top dose 10 µM; top dose inferred
Description: as §1

UNC1215 = compound: O=C(c1ccc(C(=O)N2CCC(N3CCCC3)CC2)c(Nc2ccccc2)c1)N1CCC(N2CCCC2)CC1 [UNC1215]; conditions: top dose 1 µM; top dose inferred
Description: as §1

BIX02189 = compound: CN(C)Cc1cccc(N=C(c2ccccc2)c2c(O)[nH]c3cc(C(=O)N(C)C)ccc23)c1 [BIX02189]; conditions: top dose 20 µM; top dose inferred
Description: as §1

Dimethyloxalylglycine = compound: COC(=O)CNC(=O)C(=O)OC [Dimethyloxalylglycine]; conditions: top dose 4000 µM; top dose inferred
Description: as §1

OSI-027 = compound: COc1cccc2cc(-c3nc([C@H]4CC[C@H](C(=O)O)CC4)n4ncnc(N)c34)[nH]c12 [OSI-027]; conditions: top dose 20 µM
Description: as §1

VX-11e = compound: Cc1cnc(Nc2ccc(F)cc2Cl)nc1-c1c[nH]c(C(=O)N[C@H](CO)c2cccc(Cl)c2)c1 [VX-11e]; conditions: top dose 5.12 µM; top dose inferred
Description: as §1

TG101348 = compound: Cc1cnc(Nc2ccc(OCCN3CCCC3)cc2)nc1Nc1cccc(S(=O)(=O)NC(C)(C)C)c1 [TG101348]; conditions: top dose 10.24 µM
Description: as §1

Row | Cell Line | AUC (17-AAG) | IC50 (17-AAG) [µM] | AUC (CCT018159) | IC50 (CCT018159) [µM] | AUC (Vismodegib) | IC50 (Vismodegib) [µM] | AUC (UNC1215) | IC50 (UNC1215) [µM] | AUC (BIX02189) | IC50 (BIX02189) [µM] | AUC (Dimethyloxalylglycine) | IC50 (Dimethyloxalylglycine) [µM] | AUC (OSI-027) | IC50 (OSI-027) [µM] | AUC (VX-11e) | IC50 (VX-11e) [µM] | AUC (TG101348) | IC50 (TG101348) [µM]
1 | BT-549 (breast, adherent) | 0.623 | 0.156 | 0.884 | > 10 | 0.979 | > 10 | 0.975 | > 1 | – | – | – | – | – | – | – | – | – | –
2 | KNS-62 (lung squamous cell carcinoma, adherent) | 0.739 | 0.418 | 0.927 | > 10 | 0.959 | > 10 | 0.96 | > 1 | – | – | – | – | – | – | – | – | – | –
3 | CRO-AP2 (B-cell lymphoma, suspension) | 0.843 | 0.575 | 0.761 | 3.13 | 0.957 | > 10 | 0.981 | > 1 | – | – | – | – | – | – | – | – | – | –
4 | RPMI-8226 (myeloma, suspension) | – | – | 0.887 | 8.66 | 0.927 | > 10 | 0.985 | > 1 | 0.933 | > 20 | 0.745 | 1120 | 0.305 | 0.387 | 0.941 | > 5.12 | 0.782 | 3.71
5 | M14 (melanoma, adherent) | – | – | 0.975 | > 10 | 0.987 | > 10 | 0.985 | > 1 | 0.92 | > 20 | 0.809 | 2220 | 0.987 | > 20 | 0.586 | 0.559 | 0.987 | > 10.2
6 | THP-1 (acute myeloid leukaemia, suspension) | 0.93 | > 1 | 0.976 | > 10 | – | – | 0.988 | > 1 | 0.923 | > 20 | 0.84 | 2370 | 0.442 | 0.885 | 0.919 | > 5.12 | – | –
7 | NCI-H835 (lung carcinoid, suspension) | 0.949 | > 1 | 0.985 | > 10 | 0.986 | > 10 | 0.983 | > 1 | – | – | – | – | – | – | – | – | – | –
8 | MOLT-16 (T-cell lymphoblastic leukaemia, suspension) | 0.984 | > 1 | 0.766 | 3 | 0.948 | > 10 | 0.985 | > 1 | – | – | – | – | – | – | – | – | – | –
9 | ACHN (kidney, adherent) | – | – | 0.878 | > 10 | 0.963 | > 10 | 0.977 | > 1 | 0.873 | > 20 | 0.529 | 303 | 0.777 | 9.23 | 0.944 | > 5.12 | 0.789 | 5.23
10 | U251 (glioma, adherent) | – | – | 0.817 | 5.27 | 0.965 | > 10 | 0.987 | > 1 | 0.942 | > 20 | 0.467 | 204 | 0.461 | 0.983 | 0.933 | > 5.12 | 0.936 | > 10.2
11 | KARPAS-1106P (B-cell lymphoma, suspension) | 0.956 | > 1 | 0.906 | 9.35 | 0.973 | > 10 | 0.992 | > 1 | – | – | – | – | – | – | – | – | – | –
12 | CCRF-CEM (lymphoblastic leukaemia, suspension) | – | – | 0.792 | 3.75 | 0.91 | > 10 | 0.984 | > 1 | 0.847 | 11.3 | 0.207 | 41.4 | 0.197 | 0.193 | 0.927 | > 5.12 | 0.737 | 2.65
13 | BxPC-3 (pancreas, adherent) | 0.639 | – | 0.981 | > 10 | – | – | 0.982 | > 1 | 0.92 | > 20 | 0.626 | 580 | 0.791 | 10.2 | 0.901 | > 5.12 | 0.917 | > 10.2
14 | HL-60 (acute myeloid leukaemia, suspension) | – | – | 0.939 | > 10 | 0.978 | > 10 | 0.988 | > 1 | 0.935 | > 20 | 0.406 | 142 | 0.339 | 0.47 | – | – | – | –
15 | AU565 (breast, adherent) | – | – | 0.801 | 5.52 | 0.984 | > 10 | – | – | 0.984 | > 20 | – | – | 0.755 | 7.5 | 0.983 | > 5.12 | 0.973 | > 10.2
16 | SK-OV-3 (ovary, adherent) | – | – | 0.94 | > 10 | 0.981 | > 10 | 0.979 | > 1 | 0.93 | > 20 | 0.615 | 562 | 0.466 | 0.983 | 0.964 | > 5.12 | 0.671 | 2.18
17 | CHP-134 (neuroblastoma, suspension) | 0.894 | > 1 | – | – | – | – | – | – | 0.928 | > 20 | – | – | 0.551 | 1.79 | 0.979 | > 5.12 | 0.827 | 8.71
18 | MOLT-13 (T-cell lymphoblastic leukaemia, suspension) | 0.99 | > 1 | 0.979 | > 10 | – | – | 0.984 | > 1 | 0.897 | 19.5 | – | – | 0.263 | 0.292 | 0.781 | 1.86 | 0.509 | 0.673
19 | HCC70 (breast, adherent) | – | – | 0.949 | > 10 | 0.949 | > 10 | 0.984 | > 1 | 0.884 | > 20 | 0.57 | 386 | 0.752 | 6.51 | 0.921 | > 5.12 | 0.917 | > 10.2

Lines with a small IC50 respond at low doses; a fit beyond the top or the lowest dose is shown as a bound at that dose. The AUC spans the tested range (256-fold, ending at the top dose) of the same fit: 1 means no effect, lower means more sensitive. For part of these data: Where the top dose is marked as inferred, it comes from the curve model; the source does not state it.
